Experimental data from the supplement of paper PMC11417369.
± gives the standard deviation of the averaged measurements. Some of the results follow.

What follows are sequences tested on PfAP2-LT AP2 domain (GST-tagged) (assay: gcPBM binding intensity (ln(normalized median fluorescence intensity)); higher = stronger DNA binding).
Outline: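 Binding of GST-tagged P. falciparum DNA-binding domains, expressed in E. coli and used at about 25 μg on average, was carried out for 1 h in 1× PBS containing 1% milk, 0.2 mg/ml BSA, 0.5% salmon testes DNA and 0.03% Triton X-100. The target was an Agilent 4 × 180k array of primer-extended double-stranded 36-bp intergenic genomic probes plus negative controls, read with Alexa488 anti-GST antibody at 488 nm. Binding intensity is the highest Masliner-normalised natural-log median intensity across replicate spots of either probe orientation.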

Row | Sequence | gcPBM binding intensity (ln)
1 | TATATATATATATATATATATATATATGTGTATGTA [TGCATGCA_negctrl_site255] | 10.2 ± 0.26
2 | TATATATTTATTTATTGTACACTCTTTAAGAATACA [XGTACX_site2569] | 8.59 ± 0.42
3 | AATAAAATTGACCATTCACACAAGAAAAATTAATCA [CACACA_site5636] | 8.71 ± 0.42
4 | ATACACAAGAATATGTTGCACTTTTATATTCGTATG | 9.02 ± 0.45
5 | AAAAGAATTAATTTATGTACTAATTTCAAGAAATAA [XGTACX_site3241] | 8.28 ± 0.54
6 | CTTTTTCCTTTATAAAGTACTTAAAATATTTAGATA [XGTACX_site4259] | 8.31 ± 0.46
7 | ATATATTATCAACTTACACACAGAAAACTATAATAA [CACACA_site6275] | 9.03 ± 0.33
8 | TCCTTACACACACTTTTTTTTTTTTTTTTTTCTACA [GTGCAC_negctrl_site263] | 9.16 ± 0.53
9 | CTCGATCAAGTGTATGCATGTACCAGTGAACAAAAA [TGCATGCA_site635] | 8.9 ± 0.54
10 | ATATATTTAAAAAAATGTACAAATCATAAATGCAAG [XGTACX_site4230] | 8.77 ± 0.39
11 | TATAATGTTGATGATAGTACGTATGAGTTCAAAAAA [XGTACX_site3651] | 8.82 ± 0.42
12 | AAAAAATTATACCAGTGTACTTTTTTGGTTTTTCTT [XGTACX_site2601] | 8.79 ± 0.52
13 | AGAAATTAAATGTAAGCACACATAAATTATACACAT [CACACA_site9098] | 9.12 ± 0.42
14 | TTCTTTATTATATGCACACGTACATATAATATATAT [CACACA_site2018] | 9.09 ± 0.44
15 | ATTTATATTAATGGATAAATAAATGTGTACTTGATA [CACACA_negctrl_site24] | 8.62 ± 0.36
16 | ATCAACAAAACATACACACACATATAGATTTATATA [CACACA_site7415] | 9.55 ± 0.32
17 | AAAAAAAAAAAACACACACACATATATATATATATA [CACACA_site732] | 10.4 ± 0.19
18 | TTATGTAAAATCGATACATGCATTAATCATTTTATA [TGCATGCA_site493] | 8.51 ± 0.45
19 | TATGATATGTTATACACACACGTATTTATGAATTGA [CACACA_site7591] | 9.09 ± 0.32

Row | Sequence | gcPBM binding intensity (ln)
20 | TCATATTTCCATAGGAGTACATAAAAAAAATAATAT [XGTACX_site7601] | 8.63 ± 0.51
21 | AAAATGTAGAAATGGGTGCACACACATATATAATAT | 9.5 ± 0.45
22 | TATATATATAAAAGTTGTACAGTGTTTTATATAGTT [XGTACX_site7085] | 8.74 ± 0.36
23 | AATTAGCTATTTAAAAATATATAAAATTTATATATA [CACACA_negctrl_site390] | 8.25 ± 0.41
24 | GAAATAGAGAGACACACACACATATATTTATGTATT [CACACA_site7794] | 9.78 ± 0.4
25 | ATCATATTGAATATTTAACACACATTTCGCTTAATT [CACACA_site8652] | 9.08 ± 0.49
26 | TTTTTCTTTTGATGTTGTACATATATATTATATATA [XGTACX_site2754] | 8.77 ± 0.38
27 | TTTTCAATTAATAATACACACATGTATATATCATTA [CACACA_site7539] | 8.81 ± 0.43
28 | TGATGTTGTAACAAAAGTACACACACATTTCTATAA [XGTACX_site5837] | 9.08 ± 0.38
29 | TAATGCATTATTAGAATACACACCATACGCATATTT [CACACA_site289] | 9.08 ± 0.3
30 | AACTGTACAATTTTTGTGCACAATAATTATTAATAT [GTGCAC_site9462] | 8.84 ± 0.33
31 | ATATTTTTATTTAAACGTACATACACGTTGAAAAGA [XGTACX_site4567] | 8.43 ± 0.4
32 | TGCTATATAATATGAGCACACATAAGATTTGGTGTT [CACACA_site8148] | 8.98 ± 0.47
33 | AATCTGATTTGTATATGTACACAAATATTTTTATTT [XGTACX_site5295] | 8.99 ± 0.53
34 | AACTATAAAAAAAATACACACATTACCAAAAATATA [CACACA_site1529] | 9.13 ± 0.39
35 | TTTAATAATTATTAAAGTACAAAATAAATATTGAAT [XGTACX_site7538] | 8.62 ± 0.38
36 | TATAAAAAAATATATATATATATATATATATAAATA [TGCATGCA_negctrl_site22] | 9.09 ± 0.37
37 | GATAAAACGTTATGCACACGTACGTGGGTATTTATA [CACACA_site4954] | 9.25 ± 0.44
38 | AAGAAAAAAAAAAAAAATATATATATAAGAACATAT [TGCATGCA_negctrl_site131] | 8.71 ± 0.47

Row | Sequence | gcPBM binding intensity (ln)
39 | TAATATTATTTAGAGTGTACTCATAAATCAACAAAA [XGTACX_site5269] | 8.38 ± 0.51
40 | ATATAGAACACCTGTGCATGCAAGTGCTAAAAAATT [TGCATGCA_site213] | 9.25 ± 0.52
41 | CTATTTTTATATTATTGTACGTTGTTATTATATATA [XGTACX_site1469] | 8.87 ± 0.49
42 | CTAAGCTAAGTAAGCTGTACTTCACCTTTATACAGT [XGTACX_site3087] | 8.89 ± 0.52
43 | ATATATATGGAAACAGTGCAATACATATATATATAT | 9.61 ± 0.6
44 | TTTATATTTATATATACACACATATACATCCTATTT [CACACA_site3079] | 9.13 ± 0.47
45 | TTTTTTTTTTTTAATACACACATATTTATATTTATT [CACACA_site7802] | 8.8 ± 0.53
46 | TTTTTCTTAAAAAATTGTACACATATATATATATAT [XGTACX_site542] | 9.05 ± 0.15
47 | ATTAAGTTAAACATTACACACTATGTATTATTTATG [CACACA_site973] | 9.02 ± 0.45
48 | ATATATATATATATATGTACTAACCTTTTAAAATAT [XGTACX_site6488] | 9.355 ± 0.078
49 | AATTGGGTAGGACATGCATGAGAAATTAATATTGCA [TGCATGCA_site356] | 9.12 ± 0.58
50 | AATCAAAGCCCACATACACACACATATATATATATA [CACACA_site7987] | 10 ± 0.2
51 | TATTACATTGTTGAATGTACTCATTTAAAATTTATA [XGTACX_site7987] | 8.44 ± 0.41
52 | ATGTCAAACATTTGCACACAAAAAAATAAAAATTAA [CACACA_site692] | 9.1 ± 0.48
53 | TTATACTAAATGAACACACACACATCTATATTTATA [CACACA_site6199] | 9.51 ± 0.29
54 | AAATTAGACTATAATACACACATAAAAAAAAAATCA [CACACA_site7672] | 8.98 ± 0.35
55 | AATTAAAATAATAATACACACATCATAGAAAAAGAC [CACACA_site292] | 9.33 ± 0.35
56 | TTTTTTTTTTTTTTCTCACACATTTAATGATAATAT [CACACA_site5513] | 8.61 ± 0.45
57 | CATATTTACTATCACACACACGATATATATAAATAT [CACACA_site1241] | 9.4 ± 0.42
